Test results reported in the supplement of paper PMC11383711.
This is one part of the list. Binding of human antibodies (heavy:light variable regions, tested as scFv in one mRNA-display pool) to influenza hemagglutinin, with or without the stem antibody CR9114 bound first. Score = (mean enrichment − median) / interquartile range of that screen; higher = more enriched, 0 = typical non-binder. Active = above the paper's cut-off per screen: stems 28; unblocked H1 Solomon Islands 5, H1 Michigan 3, H3 5, H5 19, H7 2.85, both B 5; blocked 9, 7, H5 10, H7 10, B Phuket 10, B Lee 11.5. Scores are scaled within each screen and are no affinities; replicates correlate at about 0.6 to 0.9, and antibodies rare in the pool are noisier.

B1: W85-1E07 (protein)
chain 1: EVQLVESGGGLVQPGGSLRLSCAASGFKVGDNYMSWVRQAPGKGLEWVSIIYGGGRTYYADSVKGRFTLSRDNSKNTLSLQMNSLRGEDTAVYYCARDGVAGGEGAYDIWGQGTMVTVSS
chain 2: DIQMTQSPSSLSASVGDRVIITCRASQPISSYLNWYQQKPGKAPNLVIYSASSLQSGVPSRFSGSGSGTDFTLSISNLQPEDFATYYCQQSYSDPYTCGQGTKLEIK
B2: W85-2F12 (protein)
chain 1: QVQLQESGPGLVKPSETLSLTCSVSGGSLSSSTYYWGWIRQPPGKGLEWIGSVYYTGSTDYNPSLRSRVSISIDTSKNQFSLKMSSVTAADTAVFYCARYLQWLAPAPLDCWGQGTLVTVSS
chain 2: DIVMTQSPDSLAVSLGERATINCKSSQSVLYSSINKNYLAWYQQKPGQPPKLLIYWASTRESGVPGRFSGSGSGTDFTLTIGSLQAEDVAVYYCQQYYSAPLTFGGGTKVEMK
B3: W85-2F05 (protein)
chain 1: EVQLVESGGGVVQPGRSLRLSCAASGFSFSSYAMHWVRQAPGKGLEWVAVISYDGSNKYYADSVKGRFTISRDNSKITLFLQMNSLRPEDTAIYYCARTTDYNVYYSGMDVWGQGTTVTVSS
chain 2: QSALTQPASVSGSPGQSITISCTGTSTDIGDYNYVSWYQQHPGRAPKLIIYEVTNRPSGVSNRFSGSKSGYTASLSISGLQAEDEADYYCSSYADGSTPYVFGSATKVT
B4: 051-10-4G03 (protein)
chain 1: EVQLVESGGGLVQPGRSLRLSCTASGFTFGDYAMSWVRQAPGKGLEWVGFIRSKRYGGTTEYAASVKDRFTISRDDSKSIASLQMSSLKRDDTAVYYCTRDLVGATTFFLYGMDVWGQGTTVTVSS
chain 2: DIQMTQSPSSVSASIGDRVTITCRASQDVSTWLAWYQQKPGKAPKLLIYTASSLQSGVPSRFSGSGSGTDFTLTISSLQPEDFATYYCQQANSFPLTFGGGTKVEIK
B5: 042-10-4C06 (protein)
chain 1: EVQLVESGGGLVKPGGSLRLSCEVSGLIFKNAWMTWVRQAPGMGLEWVGRIKSKSEGGTADYGTPVRDRFIISRDDSKNMVYLQMDSLQTEDTAVYYCATIGIDYNSRSGYFSFDYWGQGALVTVSS
chain 2: EIVLTQSPDTLSLSPGERATLFCRASQSVGNSLAWYRQKLGQPPRLLIYDASIRATGIPARFTGSGSGTDFTLTISSLEPEDFAVYYCQQRANWAPFTFGRGTKVEIK
B6: C1-2D03 (protein)
chain 1: VQLVESGGGLVKPGGSLRLSCAASGFTFSNAWMSWVRQAPGKGLEWVGRIQSQHEGGTTDYAAPVKGRFTISRDESKNTLYLQMNSLKTEDTAVYYCTTASNPYNWNGPYFDYWGQGTLVTVSS
chain 2: DIQMTQSPSTLSASVGDRVTITCRASQSIGTWLAWYQQKPGKAPKLLIYKASSLESGVPSRFSGSRSGTEFTLTISSLQPDDFATYYCQQYNVYSPMYTFGQGTKVEIK
B7: AG2-F02 (protein)
chain 1: VQLVESGGGVVQPGRSLSLSCAASGFTFSNYAMHWVRQAPGKGLEWIFHISYDSSNRYSADSVKGRFTLSRDNSKNTLSLQMDSLKVEDTAVYYCARGEVINGPLYYFDYWGHGTLVTVSS
chain 2: EIVLTQSPATLSLSPGERATLSCRASQSVRYFLAWYQQKPGQAPKLLISDASNRATGIPARFSGSGFGTDFTLTIDNLEPDDSAVYYCQQRSTWAHITFGGGTKVEIK
B8: 01.ae.01 (protein)
chain 1: QVQLQQWGAGLLKPSEALSLSCAVYGGSFSDYYWNWIRQPPGKGLEWIGEIDNFGSTKYHPSLKSRVTISVDTSKNQFSLKLTSVTAADTAVYYCARVRRPIVAHYYGLDVWGQGTTVTVSS
chain 2: DIQMTQSPSSLSASIGDRVTITCRASQGISNYLAWYQQRPGKAPKLVIYAASTLQSGVPSRFSGSGSGTYFTLTISSLQPEDFATYYCQQLNTYPRTFGPGTKVDI
B9: W85-1E01 (protein)
chain 1: EVQLVESGGGLVRPGRSLTLSCATSGFTFGDYGLSWVRQAPGKGLEWVGFIRSKPYGATTEYAASVKGRFTISRDDSKSIAYLQMNSLKIEDTAVYFCGRDPHSGSYLDYWGQGTLVTVSS
chain 2: QSALTQPASVSGSPGQSITIFCTGTSSDVGGYNYVSWYQQHPGKAPKVMIYEVNNRPSGVSNRFSGSKSGNTASLTISGLQSEDEADYYCSSYTGSSTYVFGSGTKVTV
B10: 014-10-1B04 (protein)
chain 1: QLQESGPGLVKPSETLSLTCTVSGGSISGTSYYRVWIRQPPGKGLEWIGSIYYSGSTHYSPSLKSRVTITEDTSKNQFSLKMISVTAADAAVYYCATGPNFEAFDLWGQGTMVTVSS
chain 2: QSALTQPRSVSGSPGQSVTISCTGTSSDVGGYNYVSWYQQHPGKAPKLMIYDVSNRPSGVPDRFSGSKSGNTASLTISGLQAEDEADYYCCSYVGSNTFYVIFGGGTKLTVL
B11: W85-2B08 (protein)
chain 1: EVQLVESGGGLVQAGRSLRLSCTASGFTFGDYGMSWVRQAPGKGLEWVGFIRSKAYGGTTDFAASVKGRFIISRDDSKSIAYLQMHSLKTEDTAVYYCCRDPYSGSYIDSWGRGTLVTVSS
chain 2: QSALTQPASVSGSPGQSITISCTGTSSDIGGFKYVSWYQQHPGKAPKVMIYEVSDRPSGVSNRFSGSKSGNTASLTISGLQAEDEADYYCSSYTSSSTFVFGTGTKVTVL
B12: R95-1G06 (protein)
chain 1: EVQLVESGGGLVRPGGSLRLSCAASGFTFNSYGLNWVRQAPGKGLEWVSSIGSSFGYIYYADSVKGRFTISRDNAKSSLFLQMNSLRVEDTAVYYCTRDGDGYARFDHWGHGTLVSVSS
chain 2: SYELTQPPSVSVAPGQTARITCGGNSIGSKSVHWYQQKPGQAPVLVVYDDSDRPSGIPERFSGSNSGDTATLTISRVEAGDEADYYCQVWDSRSDHVVFGGGTKLTVL
B13: R95-1A10 (protein)
chain 1: EMALVESGGTVVQPGGSLTLSCEVSGFTFDDYAMHWVRQVPGKGLEWVSLISWDAGNTNYADSVKGRFNISRDNTRSILYLQMSSLRPEDTAIYYCTKDDGGGNYDYYRYMDVWGRGTTVTVS
chain 2: QSALTQPASESGSLGQSITISCTGTSGDVGGYNRVSWYQQHPGKAPRLVIYEGSKRPSGVSSRFSGSKSGNTASLTITGLQAEDEAEYFCSSYAGSITFVFGTGTKVNVL
B14: AG11-E04 (protein)
chain 1: VQLQESGPGLVKPSETLSLTCSVSGDSISSDYYWGWIRQPPGKGLEWIGSLYAGGITYYSPSLESRLSMAMDTSRNEFSMSLTSVTAADAAVYYCVRDRNILSREGFDFWGQGILVTVSS
chain 2: DIQMTQSPSSLSASVGDSVTITCRASQNIGFFLNWYRQKPGKAPELLVYLASTLQSGVPSRFSGGRSGTDFTLTISGLQPQDFATYFCQQSYENTPYTFGQGTKVEIK
B15: R95-2G09 (protein)
chain 1: QVQVQESGPGLVKPSETLSLTCNVSGGSISSSAYYWGWIRQSPGKGLEWIGSLHYSGSTDYNPSLKSRVTIFADTSKNQFSLKLTSVTAADTAVYYCARRGYNGNYYEYFHHWGQGTLVTVSS
chain 2: DIVMTQSPLSLPVTPGEPASISCRSSQSLLHSNGYNYLDWYLQKPGQSPQLLIYLGSSRASGVPDRFSGSGSGTDFTLKIRRVEADDVGVYYCMQALQTPHTFGQGTKLEIK
B16: W85-3F09 (protein)
chain 1: EVQLVESGGGVVQPGRSLRLSCAASGFTFSSFGMHWVRQAPGKGLEWMAVISYNGINKDYADSVKGRFTISRDNSKNTLYLQMNSLRAEDTAVYYCAAGQRQFDYFPDGDYYYFDSWGQGTLVTVSS
chain 2: QSALTQPPSASGTPGQRVTISCSGSSSNIGSYYVYWYQQLPGTAPKVLIYRNDRRPSGLPDRFSGSKSGTSASLAISGLRSEDEGDYYCASWDNSLSGPVFGGGTKLTV
B17: antibody 1F06 (protein)
chain 1: VQLLESGGGLVQPGGSLRLSCAASGLTFSSYAMSWVRQAPGKGLEWVSVIYSDGSGTWYADSVKGRFTISRDNSKNTLFLQMSSLRAEDTAVYYCAKDRFRGSWIDVFDIWGQGTMVTVSS
chain 2: DIQMTQSPSSLSASVGDRVTITCQASQDMSNSLNWYHQKPGKAPKLLIYGASHLEAGVPSRFSGSGSGTDFTFTISSLQPEDIGTYYCQRFKAFGQGTKVEIK
B18: 051-10-2A05 (protein)
chain 1: EVQLVESGGGLVQPGGSLRLSCAASGFIFSSYWMSWVRQAPGKGLEWVANINQGGSEKQYVDSVKGRFTISRDNAKKSLFLQMNRLRAEDTAVYYCVRVGAYGDTYHDYYGMDVWGQGTTVTVSS
chain 2: SYELTQAPSVSVAPGQTARITCGGNNIGSKSVQWYQQKPGQAPVMVVFDGSDRPSGIPERFSGANSGNTATLTISRVEAGDEADYHCQVWDSSSERHVVFGGGTKLTVL
B19: K77-2H03 (protein)
chain 1: QVQLVQSGAEVRKPGASVKVSCRASGYTFTSYHLHWVRQAPGQGLEWMGIINLSGGSITYAQKFQGRVTMTRDTSTSTAYMELSSLRSDDTAVYYCARRGFIVTSHLYYYGMDVWGQGTTVTVS
chain 2: EIVLTQSPGTLSLSPGERATLSCRASQSVSSSYLAWYQQKPGQAPRLLIYGASSRATGIRDRFSGYGSGTDFTLTISRLEPEDCAVYYCQQYGRYGTFGQGTKVEIK

Molecular target: H1 HA stem construct (mini-HA #4900)
Test: mRNA display binding score; higher = more enriched on the antigen
Settings: antigen blocked with: nothing
Method: (§1)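 A pool of natively paired antibodies, displayed as scFv on mRNA, was selected once on antigen-coated beads and sequenced before and after; two replicates.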

mRNA display binding score, inactive:
B1 -0.832, B2 -1.21, B3 -0.173, B4 0.0141, B5 0.545, B6 0.33, B7 0.328, B8 -0.448, B9 -0.523, B10 0.695, B11 -0.648, B12 -0.305, B13 -0.543, B14 -0.761, B15 0.184, B16 0.108, B17 0.842, B18 -0.673, B19 1.18

Molecular target: H3 HA stem construct (H3ssF)
Test: as above
Settings: antigen blocked with: nothing
Method: as §1

mRNA display binding score, inactive:
B1 0.407, B2 0.5, B3 0.392, B4 0.964, B5 2.44, B6 0.286, B7 -0.601, B8 0.161, B9 1.19, B10 4.61, B11 -0.327, B12 -0.498, B13 1.32, B14 0.251, B15 -0.509, B16 0.356, B17 -0.0913, B18 0.132, B19 0.567
